In ChEMBL document CHEMBL4888484, “Replenishing the malaria drug discovery pipeline: Screening and hit evaluation of the MMV Hit Generation Library 1 (HGL1) against asexual blood stage Plasmodium falciparum ,using a nano luciferase reporter read-out” (2022):
About 540 (0.36%) of roughly 150,000 compounds showed an effect of 50% or more. The list shows a part of the results.

These compounds were tested on Plasmodium falciparum (assay: Primary screen in NF54 nanoGlo assay, in single point, at 2uM, 72h; a lower Z score goes with more inhibition). Conditions: timepoint 72 hour.
Assay type: functional, Erythrocyte

| SMILES | % Inhibition [%] | Z score |
| --- | --- | --- |
| Cc1nc(C(=O)NCc2oc3ccc(F)cc3c2C)c(=O)[nH]c1C | -7 | 1.47 |
| COc1ccc(CN2CCN(C3CCN(C(C)=O)CC3)C[C@@H]2CCO)c(C)c1C | -24 | 2.89 |
| COc1cc([C@H](C)NC(=O)N(C)Cc2nnc[nH]2)cc2ccccc12 | -10 | 0.98 |
| O=C(Cn1nc(-c2ccc3c(c2)OCCO3)ccc1=O)NCc1ccc2c(c1)OCO2 | 1 | -0.09 |
| COc1ccc(-c2nc(C)nc3c2cnn3C)c(OC)c1OC | 2 | -0.33 |
| CO[C@@H](C)c1nc(C)c(C(=O)Nc2nc(-c3ccc(C)s3)c(C)s2)s1 | 12 | -1.76 |
| CN(CC1(N(C)C)CCC1)C(=O)c1nc2c(s1)CCC2 | -8 | 1.43 |
| O=C1[C@@H](Nc2ncccn2)CCN1c1ccc(Cl)c(F)c1 | -11 | 1.1 |
| NC(=O)CC[C@@H]1N[C@]2(C(=O)Nc3ccccc32)[C@@H]2C(=O)N(c3ccccc3C(F)(F)F)C(=O)[C@H]12 | -5 | 0.57 |
| O=C(CC1(C(=O)O)Cc2ccccc2C1)Nc1ccc2c(c1)CCC2 | -6 | 0.6 |
| Cc1cnc(NCc2cnn3c2CCCC3)nc1 | -6 | 0.85 |
| COCCc1nc(C)c([C@H](C)Nc2ccc3c(c2)CCC(=O)N3)s1 | -15 | 1.74 |
| Cn1cc(-c2nn(C)cc2C(=O)NC2CCC(C(F)F)CC2)cn1 (stereo unspecified) | -9 | 1.18 |
| CCOc1ccc(NC(=O)[C@H](C)OC(=O)c2cccc(Cl)c2)c(NC(=O)c2cccc(Cl)c2)c1 | 8 | -0.95 |
| O=C(c1n[nH]cc1Cl)N1CCC[C@H](c2[nH]ncc2-c2ccc(F)cc2)C1 | -10 | 1.97 |
| O=S(=O)(c1cccc2nsnc12)N1CC(N2CCCC2)C1 | -21 | 2.4 |
| Cn1cc(CN2CCN(c3cccc(Cl)c3)CC2)c(-c2ccc3c(c2)OCCO3)n1 | -11 | 1.14 |
| CNC(=O)c1nc(/C=C/C2CCCCC2)n[nH]1 | 3 | -0.37 |
| CC(C)c1ccc(N[C@@H](C)CN2CCOCC2)nn1 | -1 | 0.16 |
| Cc1n[nH]c(=O)nc1Nc1ccc2c(c1)OCCO2 | -6 | 0.75 |
| CC[C@@H](C)[C@H](NC(=O)N(CC)c1ccccc1)C(=O)O | 8 | -1.02 |
| Cc1noc2nc(C3CC3)cc(C(=O)NC3CCN4CCCCC34)c12 (stereo unspecified) | 6 | -0.91 |
| Cc1cc(-c2noc(CNC(=O)c3scnc3C)n2)no1 | 10 | -1.29 |
